# Laboratory results from ChEMBL document CHEMBL4888484, “Replenishing the malaria drug discovery pipeline: Screening and hit evaluation of the MMV Hit Generation Library 1 (HGL1) against asexual blood stage Plasmodium falciparum ,using a nano luciferase reporter read-out” (2022).
# The campaign covered roughly 150,000 compounds. About 540 (0.36%) showed an effect of 50% or more. This is one part of the list.
# Tested on: Plasmodium falciparum
# Test: Primary screen in NF54 nanoGlo assay, in single point, at 2uM, 72h; a lower Z score goes with more inhibition
# Format: functional, Erythrocyte
# Conditions: timepoint 72 hour
Compound,% Inhibition,Z score
O=C(NC1CC1c1ccccc1F)c1cc[nH]n1 (configuration not stated),3%,-0.38
Cc1cc(C)cc(CN2CCN(Cc3ncc[nH]3)[C@@H]3CS(=O)(=O)C[C@@H]32)c1,-5%,1.03
O=C(c1cccnc1)n1nc(NCc2ccccc2Cl)nc1NCc1ccccc1Cl,-3%,0.52
CCn1cc(-c2cc(C(=O)N3CCC[C@@H]3Cc3cccnc3)c3ccccc3n2)cn1,-5%,0.65
CCn1nc(C)c(-c2cc(C(=O)N3CCC(C)(c4noc(-c5ccccn5)n4)CC3)no2)c1C,-12%,1.6
O=c1cccnn1CCNS(=O)(=O)c1ccc2ccccc2c1,3%,-0.57
Cc1cc(Cl)ccc1-n1cnc(=O)n1CC(=O)N(C)C1CC1,8%,-0.91
CCC[C@H]1CN(CC(=O)NC2CCCCCC2)C[C@@H]1NC(C)=O,-2%,0.37
CCC(=O)N1CCC[C@H](C(=O)N2CCCCCCC2)C1,25%,-2.81
COc1ccsc1C(=O)NCC1(C)CCCCC1O (configuration not stated),-10%,1.61
CC(=O)CCC(=O)N1CCC([C@]2(Cc3ccc(F)cc3)NC(=O)N(CC3CC3)C2=O)CC1,-17%,2.63
c1ccc(CN2C[C@@H]3CC[C@H]2CN(Cc2ccc4c(c2)OCCO4)C3)nc1,-5%,0.66
N#CCCN(CCC#N)C(=O)C1CCCCC1,-9%,1.74
CCN(CC)CCCNC(=O)[C@H]1CCCN(c2nc3ccccc3n(Cc3ccccc3)c2=O)C1,37%,-5.39
CCc1ncc(C(=O)N2CCC[C@H]2COC)cn1,-10%,1.89
COc1ccc(C)c2sc(N(Cc3cccnc3)C(=O)Cc3cccc4ccccc34)nc12,3%,-0.43
CCC(C)(C)NC(=O)[C@H](C)Oc1cc(OC)ccc1C(C)=O,-3%,0.46
COc1ccc(C)cc1N([C@@H](C)C(N)=O)S(C)(=O)=O,-12%,1.76
Cc1cc(CN2C(=O)N[C@]3(CCc4ccccc4C3)C2=O)on1,-4%,0.74
CCN1C[C@@H](C(=O)N2CCC(c3nc4ccccc4n3C)CC2)CCC1=O,0%,0.03
O=C(Cc1cccs1)NCc1ccccn1,5%,-0.84
CCOC(=O)c1ccc2nc(-c3cccc(OC)c3)cc(OCC(=O)Nc3ccccc3F)c2c1,-2%,0.4

Compound,% Inhibition,Z score
Cc1ccc(CNc2ccc(C(=O)N(C)[C@H]3CCCN(C)C3)cc2)o1,7%,-0.76
CN1CCC(N(C[C@H]2CCOC2)C(=O)c2cc(F)ccc2Cl)CC1,-10%,1.28
COc1nc2c(cc1CNC(=O)c1ccc(CO)o1)C(=O)N(C1CCCC1)C2,-16%,2.05
CC1CCC(O)(CN2CCC[C@H](C3OCCO3)C2)CC1 (some centres not stated),-4%,0.37
O=C(CC1COc2ccccc2O1)NC1CC12CCOCC2 (configuration not stated),2%,-0.33
O=C(N[C@H]1CCCC[C@H]1C(F)(F)F)C1=NN(CCO)C(=O)CC1,-3%,0.6
COc1ccc(C2=C[C@@H](c3cccc(OC)c3)n3ncc(C(=O)Nc4ccccc4)c3N2)cc1,6%,-0.59
O=C([C@@H]1CCC(=O)N1C1CCCC1)N1CCN(c2ccc(F)cc2)CC1,-11%,1.85
COc1ccc(Cl)cc1N(C)C(=O)c1c(C)oc2ncn(CC(C)C)c(=O)c12,-9%,1.57
Cc1ccc(CCC(=O)N2CCO[C@]3(CNCCOC3)C2)cc1C,-1%,0.08
CN(Cc1ccccc1N1CCOCC1)c1ccc(C(N)=O)cn1,-15%,1.51
CCc1cc(NC(=O)N2CCCC2)n(C)n1,-7%,1.08
Cc1csc(C2CCCN(CC(O)COc3ccccc3)C2)n1 (configuration not stated),-1%,0.16
Cc1ccc2snc(C(=O)N3CC(F)CC3CO)c2c1 (configuration not stated),-8%,1.5
CCNC(=O)C(C)NS(=O)(=O)N1CCC[C@H]1C(=O)OC(C)(C)C (some centres not stated),1%,-0.15
CN1CCC(N(Cc2cccnc2)Cc2ccco2)CC1,10%,-1.51
COCC1CCN(C(=O)CCCN2CCCCC2=O)CC1,9%,-1.13
Cc1cc(=O)c2sccc2n1Cc1nnc(C(C)C)s1,3%,-0.57
O=C(NCc1nnc2n1CCC2)c1cc(F)ccc1Br,-11%,1.2
FC(F)(F)c1ccc(-c2nc(CN3CCn4c(Br)cnc4C3)cs2)cc1,-3%,0.35
CC1=NS(=O)(=O)c2cccnc2N1C,-10%,1.09
COc1ccc(NC(=O)C2CCN(c3c(C#N)cnc4ccc(F)cc34)CC2)c(C)c1,0%,-0.03

Compound,% Inhibition,Z score
CC(C)(Cc1ccc(O)cc1)C(=O)N[C@H]1CCn2cncc21,-1%,0.14
Cc1cc(Cl)ccc1OCC(=O)Nc1sc2c(c1C#N)CCCCC2,-11%,1.34
Cc1n[nH]c(C)c1CC(=O)N1CCC(c2c[nH]c3ccccc23)CC1,-3%,0.42
Cc1ccc2c(c1)CN(C(=O)[C@H](C)c1cnn(C)c1)C(C)(C)C2,-5%,0.71
CC1(C)C[C@@H](NCc2ncc[nH]2)CCN(C(=O)OC(C)(C)C)C1,-11%,1.07
COc1ccc([C@@H](C)CNC2(CO)CCCC2)cc1,0%,0.05
COCCN1C[C@@H](Cc2ccc(O)c(C)c2)CC1=O,16%,-2
COc1ccc(C)cc1CN[C@@H](Cc1c[nH]c2ccccc12)C(=O)O,17%,-2.02
O=C(c1cc(-c2ccccc2)nc2ccccc12)N(Cc1ccco1)C1CC1,1%,-0.1
CC1CN(CC(=O)NCC(C)c2nc3ccccc3s2)C(C)CO1 (configuration not stated),-2%,0.25
CCN1CCN(CCC(=O)Nc2ccc3c(c2)OCO3)CC1,-5%,0.77
O=S(=O)(Cc1ccccc1F)N1CCOc2ncccc21,-19%,3.54
O=C(c1cncc(Br)c1)N1CCC[C@H](CN2CCCC2)CC1,-1%,0.18
CS(=O)(=O)CCN1CC[C@@]2(CCCN(C3CCCC3)C2=O)C1,-3%,0.53
CC(=O)N1CCc2cc(-c3ccc(C(=O)NCCC(C)C)cc3)ccc21,40%,-4.5
CCn1nc(C)cc1C(=O)N(CC1CCN(CCc2ccccc2C)CC1)C1CCCC1,5%,-0.71
COc1ccc(Br)c2c1CCN(C(=O)CO)CC2,-4%,0.59
O=C(N[C@H]1CCN(C2CCCCC2)C1=O)c1ccnc(-c2ncc[nH]2)c1,-4%,0.4
C[C@@H](NC1CCCCCCC1)C(=O)OC(C)(C)C,-8%,0.69
COc1ccc(NC(=O)C(N)=O)c(OC)c1,-1%,0.14
Cc1cc(C)n(CCCN(C)Cc2cnn(-c3cccc(F)c3)c2)n1,-7%,1.1
NC(=O)COc1ccccc1Br,-6%,0.86

Compound,% Inhibition,Z score
O=C(Cc1ccc(F)cc1)NCc1ccc(OCc2cccnc2)cc1,-10%,1.87
CC(C)(NCC#N)c1ccc(F)c(F)c1,-18%,2.07
O=C(NC[C@@H](CO)Cc1ccccc1)c1sccc1OC(F)F,-10%,0.89
C=CCN1CC2(CCC1=O)CCN(C[C@H]1Cc3c(C)nc(C)nc3O1)CC2,-4%,0.49
CC1CCCC(CCN2CCCN(C(N)=O)CC2)C1 (configuration not stated),25%,-2.79
CCC(=O)NCCn1cnc(C2CC2)cc1=O,-3%,0.61
CN=C(NCCc1ccc(OC(F)F)cc1)NCc1ncccc1C,-6%,0.62
Cc1ccc(N2CCC[C@@]3(CCC(=O)N(CCc4c[nH]cn4)C3)C2)nc1,-17%,2.21
Cc1cc(C(=O)N2C[C@@H]3CC[C@H]2CN(S(=O)(=O)N(C)C)C3)c(C)o1,4%,-0.48
O=C(O)C1CC[C@@H](c2ccccc2)N1C(=O)Cc1ccc(O)cc1 (some centres not stated),-19%,2.06
COc1ccc(CCNC(=O)CN2C[C@H](C)[C@@](O)(C3CCC3)C2)cc1,-3%,0.57
O=C(c1ncccc1O)N1CCCC1CC(O)c1cccs1 (configuration not stated),0%,-0.04
CS(=O)(=O)c1ccc(OC[C@@]2(CNC(=O)C3CCC3)C[C@@H](O)[C@@H](O)C2)cc1,0%,0.01
O=C(c1cnn2c(-c3ccccc3Cl)ccnc12)N1CCC(Cc2ccccc2)CC1,-1%,0.07
CCC[C@@H](CC(=O)O)NC(=O)c1cccc(=O)[nH]1,-5%,0.48
Cn1cccc1CNc1ccc(C(=O)N2CCCCC2)nc1,-1%,0.09
CC(C)[C@H]1CN(c2ncc(F)c(N3CCOCC3)n2)C[C@@H]1N(C)C,25%,-3.2
Cc1nc(-c2cnn3cc(CCO)cnc23)n(C2Cc3ccccc3C2)n1,-10%,2.08
O=C(CN1CCCc2sccc2C1=O)NCc1nc(-c2ccc(F)cc2)c[nH]1,-2%,0.25
CCCCC1CCC(CNC(=O)Nc2nc(CS(C)(=O)=O)no2)CC1 (configuration not stated),1%,-0.24
